{"source": "PubChem BioAssay AID624417", "about": "(National Center for Advancing Translational Sciences (NCATS), 2012)", "note": "Values joined by “and” are separate entries in the source; they are usually repeats but may differ in a detail not shown here. Equal entries are not always repeated. About 6,400 (1.6%) of roughly 410,000 compounds were called active. Inconclusive results, whose numbers are uncertain, are shown with a selection of clear calls. Calls come from the whole dose curve; as a rule, active = well fitted inhibition curve with a large enough effect; inconclusive = small, poorly fitted or top-dose-only effect; inactive = no such curve, though single readings can be large or run the other way. A potency beside an inconclusive call is a rough fit, not a confirmed value. % is set by controls: 0 for no effect and ±100 for the full control effect; potency is the fitted concentration of half-maximal effect; tags give direction and shape of the fitted curve.", "data": [{"target": "Glucagon-like peptide 1 receptor (Homo sapiens) (UniProt P43220)", "sequence (P43220 whole entry, looked up)": "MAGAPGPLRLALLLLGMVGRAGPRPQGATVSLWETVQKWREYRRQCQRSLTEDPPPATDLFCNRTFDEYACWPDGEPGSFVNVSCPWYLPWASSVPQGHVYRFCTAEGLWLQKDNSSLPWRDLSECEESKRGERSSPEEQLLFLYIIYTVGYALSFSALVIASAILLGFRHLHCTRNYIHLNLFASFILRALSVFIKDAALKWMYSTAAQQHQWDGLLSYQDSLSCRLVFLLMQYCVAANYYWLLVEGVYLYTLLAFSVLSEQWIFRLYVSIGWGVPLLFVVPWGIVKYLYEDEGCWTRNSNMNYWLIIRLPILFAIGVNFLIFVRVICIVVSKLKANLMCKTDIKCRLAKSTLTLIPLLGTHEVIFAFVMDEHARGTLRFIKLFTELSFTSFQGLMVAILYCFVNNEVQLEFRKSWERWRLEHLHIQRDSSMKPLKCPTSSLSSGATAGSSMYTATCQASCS", "test": "qHTS of GLP-1 Receptor Inverse Agonists (Inhibition Mode); note: nearly all actives have a fitted effect of over 55% in size", "details": "HEK293 GLP-1R CRE-luciferase, luminescence, 24 h, GLP-1R form is constitutively active; activity change, negative = inhibition: at 38.3 µM (top of the series) unless noted", "how_it_was_run": "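Inverse agonists were sought by their lowering of basal cAMP reporter luciferase output in HEK293 cells stably carrying constitutively active human GLP-1R, after 24 h compound treatment.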", "values": [{"compound": "CC1=C(/C=C/C(C)=C/C=C/C(C)=C/C(=O)Nc2ccc(O)cc2)C(C)(C)CCC1", "Potency": "inconclusive: 11.2 µM [inhibitor, partial curve, poor fit] and inconclusive: 8.91 µM [inhibitor, partial curve, poor fit]"}, {"compound": "C=CCC[C@H](CCCCC)OC(=O)/C=C/[C@@H](O)[C@H](O)C[C@@H](O)CC=C", "Potency": "inconclusive: 11.2 µM [inhibitor, single point]"}, {"compound": "COc1ccc(-c2nc(Cn3c(=O)cc(-c4ccccc4)c4c(C)nn(C)c43)c(C)o2)cc1OC", "activity change, negative = inhibition": "inactive: 12%"}, {"compound": "Cc1cc(NC(=O)c2cccs2)n(-c2nc3ccccc3[nH]2)n1", "Potency": "inconclusive: 28.2 µM [inhibitor, single point]"}, {"compound": "O=C(c1cccc(S(=O)(=O)NCc2ccccc2)c1)N1CCN(c2ccccc2Cl)CC1", "Potency": "inconclusive: 28.2 µM [inhibitor, single point]"}, {"compound": "O=C(Nc1cccc(-n2cccn2)c1)C1CCCN(Cc2ccc(C#CCCO)cc2)C1", "note": "(stereo not drawn)", "Potency": "inconclusive: 10 µM [inhibitor, partial curve, poor fit]"}, {"compound": "CCCOc1ccc(F)cc1-c1cc(C(=O)Nc2ccc(F)cc2)[nH]n1", "activity change, negative = inhibition": "inactive: -12.9%"}, {"compound": "CC1CCc2nc3ccccc3c(C(=O)OCC(=O)N3CCc4ccccc43)c2C1", "note": "(stereo not drawn)", "activity change, negative = inhibition": "inactive: 10.5%"}, {"compound": "Cn1cc(C(c2ccccn2)c2cn(C)c3ccccc23)c2ccccc21", "Potency": "inconclusive: 10 µM [inhibitor, partial curve, poor fit]"}, {"compound": "CN(C(=O)COC(=O)/C=C/c1cccc([N+](=O)[O-])c1)C1CCS(=O)(=O)C1", "note": "(stereo not drawn)", "Potency": "inconclusive: 1.26 µM [inhibitor, partial curve, poor fit]"}, {"compound": "CC(NC(=O)CN1C(=O)NC2(CCCC2)C1=O)c1ccc(Cl)cc1Cl", "note": "(stereo not drawn)", "Potency": "inconclusive: 15.8 µM [inhibitor, single point]"}, {"compound": "Cc1ccc(NC(=O)c2cc(S(=O)(=O)N3CCCCCC3)ccc2F)cc1F", "Potency": "inconclusive: 1.58 µM [inhibitor, full curve, poor fit]"}, {"compound": "O=C(/C=C/c1ccccc1Cl)Nc1cccc(O)c1", "Potency": "inconclusive: 10 µM [inhibitor, partial curve, poor fit]"}, {"compound": "Brc1cccc(-c2nnc(SCc3ccon3)n2-c2ccccc2)c1", "Potency": "inconclusive: 28.2 µM [inhibitor, single point]"}, {"compound": "COc1cc2c(cc1OC)C(C)N(C(=O)Cc1ccc(C(F)(F)F)cc1)CC2", "note": "(stereo not drawn)", "Potency": "inconclusive: 12.6 µM [inhibitor, partial curve, poor fit]"}, {"compound": "Cc1nnsc1C(=O)Nc1ccc(S(=O)(=O)N2CCCC(C)C2)cc1", "note": "(stereo not drawn)", "Potency": "inconclusive: 28.2 µM [inhibitor, single point]"}, {"compound": "C/C(Cn1cnc([N+](=O)[O-])n1)=N\\NC(=O)c1ccccc1O", "activity change, negative = inhibition": "inactive: 7.1% [at 7.66 µM]"}, {"compound": "O=C(NCCc1ccc(Cl)cc1)C1(c2ccccc2)CC1", "Potency": "inconclusive: 10 µM [inhibitor, partial curve, poor fit]"}, {"compound": "O=C(Nc1cccc(F)c1)c1ccccc1", "Potency": "inconclusive: 10 µM [inhibitor, single point]"}, {"compound": "Cc1nc([N+](=O)[O-])c(Br)n1CC(=O)c1ccccc1", "Potency": "inconclusive: 12.6 µM [inhibitor, partial curve, poor fit]"}, {"compound": "CCOCCCN1C(=O)CN(C2CCC(C)CC2)C(=O)C1c1ccc(C)cc1", "note": "(stereo not drawn)", "activity change, negative = inhibition": "inactive: 5.48%"}, {"compound": "C[C@@]12C(=O)Nc3ccc(Br)cc3C(=O)N1[C@H]1c3ccccc3OC[C@@H]1[C@@H]2c1ccccc1", "Potency": "inconclusive: 11.2 µM [inhibitor, partial curve, poor fit]"}, {"compound": "Cc1cc(O)c(Oc2cc(C)cc(O)c2O)c(O)c1", "Potency": "inconclusive: 28.2 µM [inhibitor, single point]"}, {"compound": "Cc1cc(C(=O)Nc2cccc(-c3ccc(N4CCOCC4)nn3)c2)ccc1[N+](=O)[O-]", "Potency": "inconclusive: 28.2 µM [inhibitor, single point]"}, {"compound": "CCN(CC)S(=O)(=O)c1cccc(-c2n[nH]c(=S)n2/N=C/c2ccc(Br)cc2)c1", "Potency": "inconclusive: 28.2 µM [inhibitor, single point]"}, {"compound": "CC1Cc2ccccc2N1C(=O)c1ccc2c(c1)OCO2", "note": "(stereo not drawn)", "Potency": "inconclusive: 31.6 µM [inhibitor, single point]"}, {"compound": "O=C(Nc1ccc(-c2csc(Nc3cccc(C(F)(F)F)c3)n2)cc1)c1cccc(C(F)(F)F)c1", "Potency": "inconclusive: 2 µM [inhibitor, partial curve, poor fit]"}, {"compound": "COc1cc(C2C=C(C34CC5CC(CC(C5)C3)C4)NC(=S)N2)cc(OC)c1OC", "note": "(stereo not drawn)", "Potency": "inconclusive: 14.1 µM [inhibitor, partial curve, poor fit]"}, {"compound": "CSCCC(NC(=O)c1ccco1)C(=O)N1CCN(C(c2ccccc2)c2ccccc2)CC1", "note": "(stereo not drawn)", "Potency": "inconclusive: 10 µM [inhibitor, partial curve, poor fit]"}, {"compound": "CCOC(=O)Nc1ccc2c(c1)N(C(=O)CCN1CCN(CCO)CC1)c1ccccc1S2", "Potency": "inconclusive: 12.6 µM [inhibitor, single point]"}, {"compound": "Cc1ccccc1C(=O)N/N=C/c1ccccn1", "Potency": "inconclusive: 11.2 µM [inhibitor, single point]"}, {"compound": "O=C(NCc1cccnc1)C1CCN(c2ccc(S(=O)(=O)N3CCOCC3)cc2Cl)CC1", "Potency": "inconclusive: 12.6 µM [inhibitor, single point]"}, {"compound": "Cc1ccc(N2CCN(C(=O)c3c(C)oc4ncnc(N5CCCCC5)c34)CC2)c(C)c1", "Potency": "inconclusive: 10 µM [inhibitor, single point]"}, {"compound": "CCOC(=O)c1cccc(NC(=O)CCc2nc(-c3ccccc3F)no2)c1", "activity change, negative = inhibition": "inactive: -16.2%"}, {"compound": "Cc1cc(C(=O)OCC(=O)Nc2sc3c(c2C#N)CCC(C)C3)c2ccccc2n1", "note": "(stereo not drawn)", "activity change, negative = inhibition": "inactive: -3.66%"}, {"compound": "CC(C)COc1ccc(Br)cc1CNC(C)(C)C", "Potency": "inconclusive: 22.4 µM [inhibitor, single point]"}, {"compound": "COc1ccc(OC)c(NC(=O)CN(c2ccc(C)cc2)S(=O)(=O)c2c(C)n[nH]c2C)c1", "Potency": "inconclusive: 28.2 µM [inhibitor, single point]"}, {"compound": "Cc1cc(/C=N/NC(N)=S)c(C)n1-c1ccc(Cl)cc1", "Potency": "inconclusive: 14.1 µM [inhibitor, single point]"}]}]}
